{"source": "PubChem BioAssay (NCI)", "note": "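These data come from cells grown in 96-well plates and exposed to compound for 48 hours at five concentrations. Abbreviation: GI50, concentration required for 50% inhibition of growth. TGI denotes the concentration required for complete inhibition of growth.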"}
{"tested_on": "NCI-H322M lung", "assay": "DTP human tumour cell line panel, 48 h", "units": {"TGI": "µM", "GI50": "µM"}}
{"smiles": "CCCN(CCC)c1cc2c(cc1F)c(=O)c(C(=O)O)cn2-c1ccc(N2CCN(C)CC2)cn1", "TGI": 32.6}
{"smiles": "NC(=O)Nc1cc(O)ccc1N=Nc1ccc(S(=O)(=O)Nc2ccccn2)cc1", "TGI": "> 100"}
{"smiles": "CC#Cc1cc2c(cc1O)CC[C@@H]1[C@@H]2CC[C@]2(C)[C@@H](O)CC[C@@H]12", "TGI": 43}
{"smiles": "Cc1ccc(C(CC(=O)C(C)(C)CN2CCCCC2)SCCS(=O)(=O)O)cc1", "note": "(stereo not drawn)", "TGI": 84.8}
{"smiles": "COc1c(C)c(C/C=C(\\C)CCCCO)c(OC)c(OC)c1OC", "TGI": "> 100"}
{"smiles": "NCCCCN(CCCN)Cc1ccccc1", "TGI": "> 100"}
{"smiles": "S=C(N/N=C(/c1ccccc1)c1ccccn1)Nc1ccc(Cl)cc1", "TGI": 14.4}
{"smiles": "COc1c(Cl)cc(S(=O)O)cc1Cl", "TGI": "> 100"}
{"smiles": "COc1ccc(-c2cc(-c3cn[nH]c3-c3ccccn3)ccn2)cc1", "GI50": "> 25", "TGI": "> 25"}
{"smiles": "CO/N=C(/COc1c(-c2ccccc2)oc2ccccc2c1=O)c1ccc(OC)cc1", "GI50": "> 100", "TGI": "> 100"}
{"smiles": "Cc1cc2c(cc1C)C(=O)C1(C2)Cc2c(ccc(C)c2C)C1=O", "note": "(stereo not drawn)", "TGI": "> 100"}
{"smiles": "Cn1c(Sc2ccc(-c3cccnc3)n2C)ccc1-c1cccnc1", "TGI": "> 57.4"}
{"smiles": "CC1OC(OC2CCCc3c(O)c4c(c(O)c32)C(=O)c2ccccc2C4=O)CC(N)C1O", "note": "(stereo not drawn)", "TGI": 2.24}
{"smiles": "N#CSCc1c(Cl)cccc1Cl", "GI50": 37.5, "TGI": "> 100"}
{"smiles": "Nc1nc(N)c2c(ccc3nccc32)[nH]1", "GI50": 2.08, "TGI": 20.2}
{"smiles": "Cc1ncc(C(=O)Nc2ccc(CN3CCN(C)CC3)c(C(F)(F)F)c2)cc1C#Cc1cnc(N)c2ncccc12", "GI50": 0.3, "TGI": 6.89}
{"smiles": "COc1cc2nc(-c3ccccc3F)[nH]c(=O)c2cc1OC", "TGI": "> 100"}
{"smiles": "C[C@]12CCC3c4ccc(O)cc4CCC3C1Cc1ccc(O)cc12", "note": "(stereo partly drawn)", "GI50": 14.6, "TGI": 30.2}
{"smiles": "CCN1C(=O)c2ccccc2C1(O)c1ccc(Cl)cc1", "note": "(stereo not drawn)", "TGI": "> 100"}
{"smiles": "CC(C)C1SCc2nc3ccccc3n21", "note": "(stereo not drawn)", "TGI": "> 100"}
{"smiles": "CN(C)CCNC(=O)Cn1ccc(=O)c2ccc([N+](=O)[O-])cc21", "TGI": "> 100"}
{"smiles": "CO[C@@H]1C=C[C@@]23c4cc5c(cc4C(O)N(CC2O)C3C1)OCO5", "note": "(stereo partly drawn)", "TGI": 37}
{"smiles": "Cc1nc2ccccc2c(=O)n1NC(=S)Nc1cccc(Cl)c1", "TGI": "> 100"}
{"smiles": "CC1(C)N=C(N)N=C(N)N1c1cccc(CCCCc2ccccc2)c1", "GI50": 0.537, "TGI": 19.2}
{"smiles": "CC(=O)OC1CCC2(C)C(CCC3C4CC=C(C(C)=O)C4(C)OC(=O)CC32)C1", "note": "(stereo not drawn)", "GI50": 12.1, "TGI": 24.9}
{"smiles": "COc1ccc(OC)c(-c2nc3ccccc3c(=O)[nH]2)c1", "TGI": "> 100"}
{"smiles": "CCOC(=O)C(=Cc1cc(OC)ccc1OC)C(=O)OCC", "TGI": 28.4}
{"smiles": "COc1cc2c(cc1Oc1ccc(OC)c3c1CC1c4c(cc(OC)c(OC)c4-3)CCN1C)CC1c3c(cc(OC)c(OC)c3-2)CCN1C", "note": "(stereo not drawn)", "TGI": 5.14}
{"smiles": "COc1ccc(N2C(=O)c3cccnc3S2(=O)=O)cc1", "TGI": "> 100"}
{"smiles": "Cc1ccsc1C(=O)C(CC(=O)c1cccs1)c1ccsc1", "note": "(stereo not drawn)", "TGI": "> 100"}
{"smiles": "C/C(=N\\NC(=O)c1ccccc1O)c1cccc(/C(C)=N/NC(=O)c2ccccc2O)n1", "TGI": "> 100"}
{"smiles": "CC(C)=C[C@@H]1C[C@H](C)c2c(O)cc(C)c3c2C1=C(C)C(=O)C3=O", "TGI": 25.5}
{"smiles": "Nc1ccc2c(c1)CC1c3ccccc3C(C2)c2ccccc21", "TGI": "> 100"}
{"smiles": "C/C1=C\\[C@H](C)C[C@H](C)OC(=O)C[C@H](c2ccc(O)cc2)NC(=O)[C@H](Cc2ccc(O)c(Br)c2)N(C)C(=O)[C@H](C)NC(=O)[C@@H](C)C1", "TGI": "> 25"}
{"smiles": "NC(=S)NNC(=O)CCC(=O)Nc1ccc(Cl)cc1Cl", "TGI": "> 100"}
{"smiles": "O=C1c2cc3c(cc2[C@@H]2[C@H]1c1ccc([N+](=O)[O-])cc1C(=O)N2CCCCl)OCO3", "GI50": "< 0.01", "TGI": 0.0279}
{"smiles": "COc1ccc(C2CC(=O)CC(c3ccc(OC)cc3)C23C(=O)NC(=S)NC3=O)cc1", "note": "(stereo not drawn)", "TGI": "> 100"}
{"smiles": "OCc1ccc2c(c1)CC1(C2)Cc2cc3c(cc2C1)CCC3", "TGI": "> 100"}
{"smiles": "CCO/C=N/C1=C(C#N)C(c2ccc(Cl)cc2)c2c(-c3ccccc3)nn(-c3ccccc3)c2O1", "note": "(stereo not drawn)", "TGI": "> 100"}
{"smiles": "CC1(C)CC(OCCCC[P+](c2ccccc2)(c2ccccc2)c2ccccc2)CC(C)(C)N1O", "GI50": 0.894, "TGI": 11.8}
{"smiles": "O=C(Nc1sccc1S(=O)(=O)c1ccc(Cl)cc1)C(F)(F)F", "TGI": "> 100"}
{"smiles": "COc1c(NC(=O)CC(C)=O)[c]([Hg][O]C(C)=O)c(OC)c(Cl)[c]1[Hg][O]C(C)=O", "GI50": 33.3, "TGI": "> 100"}
{"smiles": "CCC[CH2][Sn]([CH2]CCC)([O]C(=O)c1cc(OC)c(OC)cc1OC)[O]C(=O)c1cc(OC)c(OC)cc1OC", "GI50": 1.74, "TGI": 4.17}
{"smiles": "Cc1ccccc1NC(=O)C1C(=O)N(c2ccccc2C)C(=O)/C1=N\\N", "note": "(stereo not drawn)", "TGI": "> 100"}
{"smiles": "O=C1CSC(c2ccc(Cl)cc2)N1c1ccc(-c2ccc(-n3c(-c4ccccc4)nc4ccccc4c3=O)cc2)cc1", "note": "(stereo not drawn)", "TGI": "> 100"}
{"smiles": "COCOCC1CCCN1CN1CCC[C@H]1COCOC", "note": "(stereo partly drawn)", "TGI": "> 100"}
{"smiles": "c1ccc2sc(SCN(C3CCCCC3)C3CCCCC3)nc2c1", "TGI": "> 100"}
{"smiles": "COc1ccc(CC2c3cc(OC)c(OC)c(OC)c3CC[N+]2(C)C)cc1Oc1ccc(CC2c3cc4c(c(OC)c3CCN2C)OCO4)cc1", "note": "(stereo not drawn)", "TGI": "> 100"}
{"smiles": "Nc1ccn(C2CC(O)C(CO)O2)c(=O)n1", "note": "(stereo not drawn)", "GI50": "> 5000", "TGI": "> 5000"}
{"smiles": "Cc1ccc(C2(O)CC(c3ccc([N+](=O)[O-])o3)=NN2C(=O)COc2ccccc2Cl)cc1", "note": "(stereo not drawn)", "TGI": "> 88.2"}
